Experimental data: paper PMC8697972, “New Auranofin Analogs with Antibacterial Properties against Burkholderia Clinical Isolates” (Antibiotics, 2021)

Key:
[1] = system: Pseudomonas aeruginosa PA01
[2] = system: Pseudomonas aeruginosa PA7
[3] = system: Pseudomonas aeruginosa PA01; experiment: MBC (minimum bactericidal concentration)
[4] = system: Pseudomonas aeruginosa PA7; experiment: MBC (minimum bactericidal concentration)

**Q.** With `C[PH](C)(C)[Au][S]CCO` [MS-40, 2-mercaptoethanolatotrimethylphosphine gold(I)] as the compound, how does the MIC [1] read?
**A.** Its MIC is 16 µg/mL.

**Q.** And the MIC [2]?
**A.** Its MIC is 32 µg/mL.

**Q.** And the MBC [3]?
**A.** Its MBC is 128 µg/mL.

**Q.** What about the MBC [4] of the same compound?
**A.** Its MBC is 64 µg/mL.

**Q.** Which MIC [1] does the source give for `CC(O)C[S][Au-][P+](C)(C)C` (centres unmarked) [MS-40S] here?
**A.** The MIC was 32 µg/mL.

**Q.** And the MIC [2]?
**A.** The MIC was 64 µg/mL.

**Q.** And the MBC [3]?
**A.** Its MBC is 256 µg/mL.

**Q.** What about the MBC [4] of the same compound?
**A.** Its MBC is 128 µg/mL.
